# Among all 410,000 compounds or so, about 6,400 (1.6%) were called active. This list was built around the results that the source calls inconclusive (neither active nor inactive); the mix of calls is not that of the screen. Calls follow the shape of the dose curve; as a rule, active = well fitted inhibition curve with a large enough effect; inconclusive = small, poorly fitted or top-dose-only effect; inactive = no such curve, though single readings can be large or run the other way. No potency is given beside an inconclusive call; the fits are too rough.
# Biological target: Glucagon-like peptide 1 receptor (Homo sapiens) (UniProt P43220)
# Chain of UniProt P43220 (P43220 whole entry, looked up): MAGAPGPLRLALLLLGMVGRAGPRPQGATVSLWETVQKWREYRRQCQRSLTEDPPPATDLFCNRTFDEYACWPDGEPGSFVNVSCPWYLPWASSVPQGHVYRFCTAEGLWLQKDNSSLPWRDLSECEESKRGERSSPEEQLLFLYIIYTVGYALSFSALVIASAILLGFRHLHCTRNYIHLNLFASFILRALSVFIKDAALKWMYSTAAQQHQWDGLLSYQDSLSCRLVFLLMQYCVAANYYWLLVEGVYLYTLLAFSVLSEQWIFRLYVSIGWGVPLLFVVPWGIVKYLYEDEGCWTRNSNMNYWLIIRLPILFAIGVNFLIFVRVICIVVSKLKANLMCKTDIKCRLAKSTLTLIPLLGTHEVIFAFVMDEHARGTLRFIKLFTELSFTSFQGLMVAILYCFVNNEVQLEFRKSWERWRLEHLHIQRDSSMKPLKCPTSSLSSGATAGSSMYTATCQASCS
# Test: qHTS of GLP-1 Receptor Inverse Agonists (Inhibition Mode); also: nearly all actives have a fitted effect of over 55% in size
# Conditions: HEK293 GLP-1R CRE-luciferase, luminescence, 24 h, GLP-1R form is constitutively active; activity change, negative = inhibition: at 38.3 µM (top of the series) unless noted
# Outline: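 Seeding at 200 cells/uL, 12 h culture, 24 hr compound treatment, then luciferase reagent and a luminescence read; cells are HEK293 stably expressing a constitutively active GLP-1R plus cAMP-responsive luciferase.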
# % is scaled to controls: 0 for no effect and ±100 for the full control effect; potency is read from the fitted curve at half-maximal effect; tags tell the direction and shape of the fitted curve.
Compound,Potency,"activity change, negative = inhibition"
COc1ccc(OC)c2sc(NC(=O)C3COc4ccccc4O3)nc12 (stereo unspecified),"inconclusive [inhibitor, single point]",
COc1cc2c(cc1NC(=O)COC(=O)[C@@H](NS(=O)(=O)c1cccc(Cl)c1)C(C)C)oc1ccccc12,"inconclusive [inhibitor, partial curve, poor fit]",
CCOC(=O)[C@H]1[C@H]2COc3ccc(Br)cc3[C@@H]2N2C(=O)c3cc(F)c(F)cc3NC(=O)[C@@]12C,"inconclusive [inhibitor, partial curve, poor fit]",
COc1ccc([C@H]2CC(=O)C=C(c3cc4ccccc4s3)C2)cc1OC,,inactive: -16.8%
O=S(=O)(Nc1cccc2cccnc12)c1ccc(S(=O)(=O)N2CCCC2)cc1,,inactive: -24.9%
Cc1cc(Br)cn2c(Cc3ccsc3)c(-c3ccc(F)cc3)nc12,"inconclusive [inhibitor, single point]",
CN1CCN(CC(=O)NN(Cc2ccccc2)c2ccccc2)CC1,,inactive: 4.95%
CC1CCCC(C)N1c1ccc(S(=O)(=O)N2CCOCC2)cc1Cl (stereo unspecified),"inconclusive [inhibitor, single point]",
Cc1cc(=S)cc(C)n1CCO,,inactive: 16.2%
CN1c2ccccc2C(O)=C(C(=S)Nc2ccc(Cl)cc2)S1(=O)=O,"inconclusive [inhibitor, single point]",
CCCCC[C@@H]1C=C(C(=O)O)[C@H](c2ccc(Cl)c(Cl)c2)N1S(=O)(=O)c1ccc(C)cc1,"inconclusive [inhibitor, single point]",
CSc1ccc(NC(=O)N2CCC(C(=O)c3ccc(F)cc3)CC2)cc1,"inconclusive [inhibitor, partial curve, poor fit]",
Cc1cc(C)cc(-n2c(C)nc3cc(C(=O)NCc4ccccc4Cl)ccc32)c1,active: 11.2 µM,
Cc1ccc(NC(=O)CN2C(=O)CCc3cc(S(=O)(=O)N4CCCCC4)ccc32)cc1C,"inconclusive [inhibitor, partial curve, poor fit]",
Cc1ccccc1S(=O)(=O)c1cc2ccccc2nc1N,"inconclusive [inhibitor, partial curve, poor fit]",
CCn1c(N2CCN(S(=O)(=O)c3ccc(Cl)cc3)CC2)nc2ccccc21,"inconclusive [inhibitor, single point]",
CC(C)(C)C(=O)NC(=S)Nc1sc2c(c1C#N)CCCCC2,"inconclusive [inhibitor, full curve]",
NC(=O)CCCn1c(C(=O)c2cc(Cl)c(N)c(Cl)c2)c2ccc([N+](=O)[O-])cc2[n+]1[O-],,inactive: -4.07%
[O-]/C(=C(\C(=S)Nc1cccc2ccccc12)[n+]1ccccc1)c1cccs1,"inconclusive [inhibitor, full curve, poor fit]",
CCCCN(CCCC)CC(O)COc1ccc(Br)cc1 (stereo unspecified),"inconclusive [inhibitor, partial curve]",
CCN(CC)Cc1c(NC(=O)c2ccc(OC)cc2)sc2c1CCCC2,"inconclusive [inhibitor, full curve, poor fit]",

Compound,Potency,"activity change, negative = inhibition"
CC(C)(C)NC(=O)Cn1nnc(-c2ccc(OCc3c(F)cccc3Cl)cc2)n1,"inconclusive [inhibitor, full curve, poor fit]",
CCOC(=O)C1CCN(C(=O)CSCc2nc(-c3ccc(OCC)cc3)oc2C)CC1,"inconclusive [inhibitor, partial curve, poor fit]",
O=C1/C(=C/c2cccc3ccccc23)CCCc2ccccc21,"inconclusive [inhibitor, partial curve, poor fit]",
COc1ccc(CCNC(=O)Cn2c(=O)c3cccn3c3ccc(F)cc32)c(OC)c1,,inactive: 5.64%
Cc1ccc(-n2nc3c(N4CCC(C(=O)NC(C)c5ccccc5)CC4)nnc(C)c3c2C)cc1 (stereo unspecified),"inconclusive [inhibitor, full curve]",
CCOc1ccc(Nc2cc(C)nc3nc(Cc4ccc(Cl)cc4)nn23)cc1,,inactive: -5.53%
Cc1cccc(-c2nc(CS(=O)CC(=O)NC(C)CCc3ccccc3)c(C)o2)c1 (stereo unspecified),"inconclusive [inhibitor, partial curve, poor fit]",
CC(=O)Oc1ccc(-c2csc(Nc3ccc(Cl)cn3)n2)cc1,"inconclusive [inhibitor, single point]",
NC(=O)C1CCCN(C(=O)CN2C(=O)NC(c3ccccc3)(c3ccccc3)C2=O)C1 (stereo unspecified),"inconclusive [inhibitor, single point]",
O=C1CCCc2cc(S(=O)(=O)NCC3CCC(C(=O)NCc4ccccc4Cl)CC3)ccc2N1 (stereo unspecified),,inactive: 3.41%
Cc1ccc2oc(C(=O)Nc3ccc(S(=O)(=O)Nc4onc(C)c4C)cc3)c(C)c2c1,,inactive: 24.3%
C=CCc1cccc(C=Nc2cc(Br)ccc2O)c1O,"inconclusive [inhibitor, single point]",
Cc1onc(-c2c(F)cccc2Cl)c1C(=O)Nc1ccc(OC(C)C)cc1,"inconclusive [inhibitor, single point]",
CC1CC(C)(C)CC2(C1)NC(=O)N(CC(=O)N1CCN(S(=O)(=O)c3cccc(Cl)c3Cl)CC1)C2=O (stereo unspecified),"inconclusive [inhibitor, partial curve, poor fit]",
O=C(/C=C/c1ccc(OCc2c(F)cccc2Cl)cc1)N1CCOCC1,"inconclusive [inhibitor, partial curve, poor fit]",
CN1C(=O)/C(=C/c2ccc(OCc3ccccc3F)cc2)NC1=S,,inactive: -0.622%
Nc1nc(OCC(F)(F)F)cc(Oc2ccccc2F)n1,"inconclusive [inhibitor, single point]",
Cc1noc(C)c1S(=O)(=O)N1CCN(C(c2ccccc2)c2ccc(Cl)cc2)CC1 (stereo unspecified),"inconclusive [inhibitor, partial curve, poor fit]",
CN1C(=O)C2(c3ccccc31)N(C)CC(c1ccccn1)C21SC(=S)N(Cc2ccco2)C1=O (stereo unspecified),"inconclusive [inhibitor, partial curve, poor fit]",
COc1ccccc1N1CCN(CC(O)COCc2cccs2)CC1 (stereo unspecified),,inactive: -20.5%
CCOC(=O)[C@]12CCCC=C1N(CCC1=CCCCC1)C(=O)[C@H](CC(=O)N1CCN(C(=O)c3ccco3)CC1)C2,"inconclusive [inhibitor, full curve, poor fit]",

Compound,Potency,"activity change, negative = inhibition"
COc1cccc(-c2sc3ccc(OC)cc3c2-c2ccc(O)cc2)c1,"inconclusive [inhibitor, partial curve, poor fit]",
COC(=O)CNC(c1ccccc1)c1cc(Br)ccc1NC(=O)c1ccccc1 (stereo unspecified),"inconclusive [inhibitor, partial curve, poor fit]",
COc1cc(-c2nnc(-c3ccc(S(=O)(=O)c4ccccc4)cc3)o2)cc(OC)c1OC,,inactive: -1.27%
Cc1cccc(C(=O)Oc2ccccc2C2C[C@]3(C)CC(=O)NC3N2C(=O)c2cccc(C)c2)c1 (stereo partly specified),"inconclusive [inhibitor, partial curve, poor fit]",
CCCCN(C)C1CCN(C(=S)Nc2ccc(OC)cc2)CC1,"inconclusive [inhibitor, full curve, poor fit]",
NS(=O)(=O)c1ccc(CCNc2ncnc3c2c(-c2ccccc2)cn3-c2ccc(F)cc2)cc1,"inconclusive [inhibitor, single point]",
O=C(O)c1ccc2nc(-c3ccccc3)c(-c3ccccc3)nc2c1,"inconclusive [inhibitor, partial curve]",
CCc1c(C)nc(SCC(=O)N2CCCCC2CC)[nH]c1=O (stereo unspecified),"inconclusive [inhibitor, partial curve, poor fit]",
Cc1cc(C)cc(NC2=C(c3ccccc3)C(=O)c3ccccc32)c1,"inconclusive [inhibitor, single point]",
CC(=O)N1c2ccc(S(=O)(=O)NCCc3ccc(Cl)cc3)cc2CC1C (stereo unspecified),"inconclusive [inhibitor, single point]",
COc1ccc(NC(C#N)c2ccc(OC)cc2)cc1 (stereo unspecified),"inconclusive [inhibitor, partial curve, poor fit]",
CCOc1ccc(C(=O)CCC(=O)Nc2ccc(C)c(S(=O)(=O)N3CCCCC3)c2)cc1,"inconclusive [inhibitor, single point]",
CCN(Cc1ccccc1)S(=O)(=O)c1ccc(C(=O)N(CCCN(C)C)c2nc3c(F)cccc3s2)cc1,"inconclusive [inhibitor, partial curve, poor fit]",
Cc1ccc2cc(C#N)c(N3CCCN(C(=O)C4CCCO4)CC3)nc2c1C (stereo unspecified),"inconclusive [inhibitor, partial curve]",
O=C(/C=C/c1ccccc1)c1ccc2ccccc2c1,"inconclusive [inhibitor, partial curve, poor fit]",
CCN(CC)S(=O)(=O)c1cccc(C(=O)Nc2cc3oc4ccccc4c3cc2OC)c1,"inconclusive [inhibitor, full curve, poor fit]",
O=C(CSCc1ccc(Cl)cc1)Nc1ccc(Br)cc1C(=O)O,"inconclusive [inhibitor, partial curve, poor fit]",
O=S(=O)(c1ccc(F)cc1)c1nc(-c2ccco2)oc1Nc1ccccc1,"inconclusive [inhibitor, partial curve, poor fit]",
Cc1[nH]nc2c(=S)[nH]c(=O)[nH]c12,"inconclusive [inhibitor, partial curve, poor fit]",
